# Experimental data: the supplement of paper PMC8728848
# The other results are listed elsewhere or left out.
# B1: Dectin2 (Homo sapiens), Q6EIG7 (protein)
# chain: MMQEQQPQSTEKRGWLSLRLWSVAGISIALLSACFIVSCVVTYHFTYGETGKRLSELHSYHSSLTCFSEGTKVPAWGCCPASWKSFGSSCYFISSEEKVWSKSEQNCVEMGAHLVVFNTEAEQNFIVQQLNESFSYFLGLSDPQGNNNWQWIDKTPYEKNVRFWHLGEPNHSAEQCASIVFWKPTGWGWNDVICETRRNSICEMNKIYL
# Columns and labels:
# Assay in all cases: glycan array binding signal (z-score within array); higher = stronger binding
# Settings in all cases: glycan notation: IUPAC condensed, linker removed
# [1] = molecular target: Neu5Ac(a2-6)Gal(b1-4)GlcNAc(b1-3)Gal(b1-4)GlcNAc(b1-3)Gal(b1-4)GlcNAc(b1-2)Man(a1-3)[Neu5Ac(a2-6)Gal(b1-4)GlcNAc(b1-3)Gal(b1-4)GlcNAc(b1-3)Gal(b1-4)GlcNAc(b1-2)Man(a1-6)]GalNAc
# How it was run: (§1)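 Glycan array binding is given as a within-array Z-score, which can be read as non-binding when negative. The arrays, 3228 of them, came from the Consortium for Functional Glycomics database and were retained only where the protein sequence was available. Z-scores were averaged across arrays of the same protein sequence at different concentrations or buffers and across linkers.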
# [2] = molecular target: Neu5Ac(a2-6)Gal(b1-4)GlcNAc(b1-3)Gal(b1-4)GlcNAc(b1-3)GalNAc
# How it was run: as §1
# [3] = molecular target: Neu5Ac(a2-6)Gal(b1-4)GlcNAc(b1-3)Gal(b1-4)GlcNAc(b1-3)[Neu5Ac(a2-6)Gal(b1-4)GlcNAc(b1-3)Gal(b1-4)GlcNAc(b1-6)]GalNAc
# How it was run: as §1
# [4] = molecular target: Neu5Ac(a2-6)Gal(b1-4)GlcNAc(b1-3)Gal(b1-4)GlcNAc(b1-6)[Gal(b1-3)]GalNAc
# How it was run: as §1
# [5] = molecular target: Neu5Ac(a2-6)Gal(b1-4)GlcNAc(b1-3)Gal(b1-4)[Fuc(a1-3)]GlcNAc(b1-3)Gal(b1-4)[Fuc(a1-3)]GlcNAc
# How it was run: as §1
# [6] = molecular target: Neu5Ac(a2-6)Gal(b1-4)GlcNAc(b1-3)GalNAc
# How it was run: as §1
# [7] = molecular target: Neu5Ac(a2-6)Gal(b1-4)GlcNAc(b1-3)[Neu5Ac(a2-6)Gal(b1-4)GlcNAc(b1-6)]GalNAc
# How it was run: as §1
# [8] = molecular target: Neu5Ac(a2-6)Gal(b1-4)GlcNAc(b1-6)GalNAc
# How it was run: as §1
# [9] = molecular target: Neu5Ac(a2-6)Gal(b1-4)GlcNAc(b1-6)[Gal(b1-3)GlcNAc(b1-3)]Gal(b1-4)Glc
# How it was run: as §1
# [10] = molecular target: Neu5Ac(a2-6)Gal(b1-4)GlcNAc(b1-6)[Gal(b1-3)]GalNAc
# How it was run: as §1
# [11] = molecular target: Neu5Ac(a2-6)Gal(b1-4)GlcNAc6S
# How it was run: as §1
# [12] = molecular target: Neu5Ac(a2-6)GalNAc
# How it was run: as §1
# [13] = molecular target: Neu5Ac(a2-6)GalNAc(b1-4)GlcNAc
# How it was run: as §1
# [14] = molecular target: Neu5Ac(a2-6)GalNAc(b1-4)GlcNAc6S
# How it was run: as §1
# [15] = molecular target: Neu5Ac(a2-6)GlcNAc(b1-4)GlcNAc
# How it was run: as §1
# [16] = molecular target: Neu5Ac(a2-6)GlcNAc(b1-4)GlcNAc(b1-4)GlcNAc
# How it was run: as §1
# [17] = molecular target: Neu5Ac(a2-8)Neu5Ac
# How it was run: as §1
# [18] = molecular target: Neu5Ac(a2-8)Neu5Ac(a2-3)Gal(b1-3)GalNAc(b1-4)[Neu5Ac(a2-3)]Gal(b1-4)Glc
# How it was run: as §1
# [19] = molecular target: Neu5Ac(a2-8)Neu5Ac(a2-3)Gal(b1-3)GalNAc(b1-4)[Neu5Ac(a2-8)Neu5Ac(a2-3)]Gal(b1-4)Glc
# How it was run: as §1
# [20] = molecular target: Neu5Ac(a2-8)Neu5Ac(a2-3)Gal(b1-4)Glc
# How it was run: as §1
# [21] = molecular target: Neu5Ac(a2-8)Neu5Ac(a2-3)Gal(b1-4)GlcNAc
# How it was run: as §1
# [22] = molecular target: Neu5Ac(a2-8)Neu5Ac(a2-3)[Gal(b1-3)GalNAc(b1-4)]Gal(b1-4)Glc
# How it was run: as §1
# [23] = molecular target: Neu5Ac(a2-8)Neu5Ac(a2-3)[GalNAc(b1-4)]Gal(b1-4)Glc
# How it was run: as §1
# [24] = molecular target: Neu5Ac(a2-8)Neu5Ac(a2-8)Neu5Ac
# How it was run: as §1
# [25] = molecular target: Neu5Ac(a2-8)Neu5Ac(a2-8)Neu5Ac(a2-3)Gal(b1-4)Glc
# How it was run: as §1
# [26] = molecular target: Neu5Ac(a2-8)Neu5Ac(a2-8)Neu5Ac(a2-3)[Gal(b1-3)GalNAc(b1-4)]Gal(b1-4)Glc
# How it was run: as §1
# [27] = molecular target: Neu5Ac(a2-8)Neu5Ac(a2-8)Neu5Ac(a2-3)[GalNAc(b1-4)]Gal(b1-4)Glc
# How it was run: as §1
# [28] = molecular target: Neu5Ac(a2-8)Neu5Ac(a2-8)Neu5Ac(a2-8)Neu5Ac(a2-3)[GalNAc(b1-4)]Gal(b1-4)Glc
# How it was run: as §1
# [29] = molecular target: Neu5Ac(a2-8)Neu5Gc(a2-3)Gal(b1-4)GlcNAc
# How it was run: as §1
# [30] = molecular target: Neu5Ac(b2-6)Gal(b1-4)GlcNAc
# How it was run: as §1
# [31] = molecular target: Neu5Ac(b2-6)GalNAc
# How it was run: as §1
# [32] = molecular target: Neu5Ac9Ac(a2-3)Gal(b1-3)GlcNAc
# How it was run: as §1
# [33] = molecular target: Neu5Ac9Ac(a2-3)Gal(b1-4)GlcNAc
# How it was run: as §1
# [34] = molecular target: Neu5Ac9Ac(a2-6)Gal(b1-4)GlcNAc
# How it was run: as §1
# [35] = molecular target: Neu5Gc(a2-3)Gal(b1-3)GlcNAc
# How it was run: as §1
# [36] = molecular target: Neu5Gc(a2-3)Gal(b1-3)[Fuc(a1-4)]GlcNAc
# How it was run: as §1
# [37] = molecular target: Neu5Gc(a2-3)Gal(b1-4)Glc
# How it was run: as §1
# [38] = molecular target: Neu5Gc(a2-3)Gal(b1-4)GlcNAc
# How it was run: as §1
# [39] = molecular target: Neu5Gc(a2-3)Gal(b1-4)GlcNAc(b1-3)Gal(b1-4)GlcNAc(b1-2)Man(a1-3)[Neu5Gc(a2-3)Gal(b1-4)GlcNAc(b1-3)Gal(b1-4)GlcNAc(b1-2)Man(a1-6)]Man(b1-4)GlcNAc(b1-4)GlcNAc
# How it was run: as §1
# [40] = molecular target: Neu5Gc(a2-3)Gal(b1-4)[Fuc(a1-3)]GlcNAc
# How it was run: as §1
# [41] = molecular target: Neu5Gc(a2-6)Gal(b1-4)GlcNAc
# How it was run: as §1
# [42] = molecular target: Neu5Gc(a2-6)GalNAc
# How it was run: as §1
# [43] = molecular target: Neu5Gc(a2-8)Neu5Ac(a2-3)Gal(b1-4)GlcNAc
# How it was run: as §1
# [44] = molecular target: Neu5Gc(a2-8)Neu5Gc(a2-3)Gal(b1-4)GlcNAc
# How it was run: as §1
# [45] = molecular target: Neu5Gc(a2-8)Neu5Gc(a2-3)Gal(b1-4)GlcNAc(b1-3)Gal(b1-4)GlcNAc
# How it was run: as §1
binder,measurement,setting,value
B1,glycan array binding signal (z-score),[1],0.455
same,glycan array binding signal (z-score),[2],-0.191
same,glycan array binding signal (z-score),[3],0.101
same,glycan array binding signal (z-score),[4],-0.147
same,glycan array binding signal (z-score),[5],-0.097
same,glycan array binding signal (z-score),[6],-0.198
same,glycan array binding signal (z-score),[7],-0.192
same,glycan array binding signal (z-score),[8],-0.146
same,glycan array binding signal (z-score),[9],-0.184
same,glycan array binding signal (z-score),[10],-0.15
same,glycan array binding signal (z-score),[11],-0.179
same,glycan array binding signal (z-score),[12],-0.176
same,glycan array binding signal (z-score),[13],-0.192
same,glycan array binding signal (z-score),[14],-0.186
same,glycan array binding signal (z-score),[15],-0.134
same,glycan array binding signal (z-score),[16],0.119
same,glycan array binding signal (z-score),[17],-0.183
same,glycan array binding signal (z-score),[18],-0.186
same,glycan array binding signal (z-score),[19],-0.116
same,glycan array binding signal (z-score),[20],-0.201
same,glycan array binding signal (z-score),[21],-0.21
same,glycan array binding signal (z-score),[22],-0.05
same,glycan array binding signal (z-score),[23],-0.177
same,glycan array binding signal (z-score),[24],-0.183
same,glycan array binding signal (z-score),[25],-0.199
same,glycan array binding signal (z-score),[26],-0.17
same,glycan array binding signal (z-score),[27],-0.133
same,glycan array binding signal (z-score),[28],-0.182
same,glycan array binding signal (z-score),[29],-0.21
same,glycan array binding signal (z-score),[30],-0.171
same,glycan array binding signal (z-score),[31],-0.206
same,glycan array binding signal (z-score),[32],-0.21
same,glycan array binding signal (z-score),[33],0.011
same,glycan array binding signal (z-score),[34],-0.14
same,glycan array binding signal (z-score),[35],-0.164
same,glycan array binding signal (z-score),[36],-0.04
same,glycan array binding signal (z-score),[37],-0.147
same,glycan array binding signal (z-score),[38],-0.193
same,glycan array binding signal (z-score),[39],-0.102
same,glycan array binding signal (z-score),[40],-0.069
same,glycan array binding signal (z-score),[41],-0.154
same,glycan array binding signal (z-score),[42],-0.2
same,glycan array binding signal (z-score),[43],-0.194
same,glycan array binding signal (z-score),[44],-0.191
same,glycan array binding signal (z-score),[45],-0.206
